# According to the supplement of paper PMC4894684:
# Where a name gives a salt, the structure may show the parent alone. ± gives the standard deviation of the averaged measurements. Out of some 1,000 compounds screened, about 15 (2%) showed an effect of 50% or more. The list shows a part of the results.
# Tested on: HFF
# Experiment: uninfected host cell viability relative to vehicle control; higher = less host cell toxicity
# Conditions: 5 µM; 72 h; oxygen 21 %
# 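Note: confluent HFF monolayers, run in parallel with the Toxoplasma growth screen as a host toxicity counterscreen.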
row,SMILES,uninfected host cell viability [%]
1,N[C@H](C(=O)O)c1cc(O)no1 [Ibotenic acid],85 ± 3.7
2,CC(=O)NCCc1c[nH]c2ccccc12 [N-Acetyltryptamine],87.1 ± 1.6
3,FC(F)(F)c1cccc(C2=CCN(CCc3ccc4ccccc4c3)CC2)c1 [Xaliproden hydrochloride],91.89 ± 0.52
4,O=c1ccc2[nH]cc(C3=CCNCC3)c2[nH]1,93.5 ± 2.5
5,O=C(O)/C=C/CO [trans-4-Hydroxycrotonic acid],89.48 ± 0.44
6,O=c1[nH]c2ccccc2n1C1CCN(CCCC(c2ccc(F)cc2)c2ccc(F)cc2)CC1 [Pimozide],84.4 ± 5.2
7,N=C(NCc1ccc(Cl)cc1)SCCCc1c[nH]cn1 [Clobenpropit dihydrobromide],86.2 ± 1.5
8,COc1cc(N)c(Cl)cc1C(=O)NC1CN2CCC1CC2 (stereo not drawn) [Zacopride hydrochloride],87.6 ± 1.2
9,Cc1ccc2c(c1)C1(CCN(CCc3nc(-c4ccccc4)oc3C)CC1)OC(=O)N2,77 ± 2.1
10,C/C(O)=C(\C#N)C(=O)Nc1cc(Br)ccc1Br,85 ± 3.8
11,C[C@@]12C(=O)OC(=O)[C@]1(C)[C@H]1CC[C@@H]2O1 [Cantharidin],19.7 ± 1.6
12,Ic1cncc(OC[C@@H]2CCN2)c1,85.8 ± 0.95
13,CCOc1cncc(/C=C/CCNC)c1 [TC 2559 difumarate],90.1 ± 2.3
14,"C=CCN1CC[C@]2(C)c3cc(O)ccc3C[C@H]1C2C (single isomer, unassigned; (+))",89 ± 6.4
15,O=C1C2CCN(CC2)C1(CO)CO,91.4 ± 6.9
16,c1ccc2sc(C3(N4CCCCC4)CCCCC3)cc2c1 [BTCP maleate],99.958 ± 0.065
17,C(=C\c1ccccc1)/CN1CCN(CCOC(c2ccccc2)c2ccccc2)CC1,98.9 ± 1.6
18,CCCN[C@@H]1CCc2c(OC)cccc2[C@@H]1C [(+)-AJ 76 hydrochloride],95.4 ± 1.7
19,CN1C(=O)CCS(=O)(=O)C1c1ccc(Cl)cc1 (stereo not drawn) [Chlormezanone],88.5 ± 4.5
20,CCCN1CCO[C@@H]2c3cc(O)ccc3OC[C@H]21,94.37 ± 0.47
21,CCOC(=O)c1ncn2c1CN(C)C(=O)c1cc(N=[N+]=[N-])ccc1-2,94.38 ± 0.56
22,CC1=NN=C(c2ccc(N)cc2)c2cc3c(cc2C1)OCO3,97.82 ± 0.92

row,SMILES,uninfected host cell viability [%]
1,Cn1c2c(c3ccccc31)CCNCC2,84.3 ± 4.7
2,CC(C)(c1ccc(OCC2CO2)cc1)c1ccc(OCC2CO2)cc1 (stereo not drawn),88.42 ± 0.58
3,CC(CN)CC(=O)O (stereo not drawn) [3-Methyl-GABA],84.48 ± 0.2
4,Fc1ccc(C(OCCN2CCN(CCCc3ccccc3)CC2)c2ccc(F)cc2)cc1,86.9 ± 1.9
5,O=C1CSC(c2ccccc2Cl)c2cc(Cl)ccc2N1 (stereo not drawn),81.9 ± 2.8
6,CCCOc1ccc2[nH]cc(C3=CCNCC3)c2n1,81.5 ± 3.4
7,CC(C)n1cnc2c(C(=O)N[C@H]3CN4CCC3CC4)cc(Cl)cc21,94.48 ± 0.3
8,O=C1CCCN1CC#CCN1CCCC1 [Oxotremorine sesquifumarate],118 ± 29
9,COC(=O)/C=C/C(=O)N[C@@H]1CC[C@@]2(O)[C@H]3Cc4ccc(O)c5c4[C@@]2(CCN3CC2CC2)[C@H]1O5 [β-Funaltrexamine hydrochloride],89.2 ± 6.3
10,"BrC1C(Br)C(Br)C(Br)C(Br)C1Br (stereo not drawn) [1,2,3,4,5,6-Hexabromocyclohexane]",97.3 ± 1.8
11,Oc1ccc2c3c1O[C@H]1c4c(c5ccccc5n4Cc4ccccc4)C[C@@]4(O)C(C2)N(CC2CC2)CC[C@]314 [N-Benzylnaltrindole hydrochloride],79 ± 2
12,CC(N)Cc1c[nH]c2ccc(O)cc12 (stereo not drawn) [α-Methyl-5-hydroxytryptamine maleate],82.68 ± 0.23
13,COc1ccc(CCN2CCC(Nc3nc4ccccc4n3Cc3ccc(F)cc3)CC2)cc1 [Astemizole],80.6 ± 2.3
14,Oc1cc2c(cc1O)[C@H]1c3ccccc3CN[C@@H]1CC2 (racemic) [Dihydrexidine hydrochloride],87 ± 4.8
15,CCCN(CCC)C1CCc2ccc(O)cc2C1 (stereo not drawn) [7-Hydroxy-DPAT hydrobromide],101 ± 3
16,c1ccc2c(c1)[I+]c1ccccc1-2 [Diphenyleneiodonium chloride],30.8 ± 3.4
17,O=C(O)c1ccc2[nH]cc(CCCCN3CC=C(c4ccccc4)CC3)c2c1 [Carmoxirole hydrochloride],87.2 ± 3.2
18,CCN1C[C@]2(COC(=O)c3ccccc3N3C(=O)C[C@H](C)C3=O)CC[C@H](OC)[C@@]34[C@@H]5C[C@H]6[C@H](OC)[C@@H]5[C@](O)(C[C@@H]6OC)[C@](O)([C@@H](OC)[C@H]23)[C@@H]14 [Methyllycaconitine citrate],99.5 ± 1.8
19,CCCN(CCC)C1CCc2cccc(O)c2C1 (stereo not drawn) [8-Hydroxy-DPAT hydrobromide],88 ± 9
20,CC(C)(Cc1c[nH]c2ccc(Cl)cc12)NCCOc1ccccc1OCC1CC1,66.8 ± 6.3
21,Cc1ccc(C[N+](C)(C)C)o1 [5-Methylfurmethiodide],87.1 ± 4.2
